Results published in the supplement of paper PMC3334620.
The full ranking holds about 33,000 sequences; the median of “E-score (-0.5 to 0.5)” is about -0.016, and the highest 2% start at about 0.32. The list shows a part of the results.

Each sequence was assayed against T1, Stp1 (UniProt B3LFK1) (assay: PBM E-score (8-mer binding enrichment) (E-score (-0.5 to 0.5)); higher = stronger / more preferred TF binding; most listed sequences are background and not binding sites). Conditions: protein concentration: 200 nM; construct: GST-full length.
T1 sequence: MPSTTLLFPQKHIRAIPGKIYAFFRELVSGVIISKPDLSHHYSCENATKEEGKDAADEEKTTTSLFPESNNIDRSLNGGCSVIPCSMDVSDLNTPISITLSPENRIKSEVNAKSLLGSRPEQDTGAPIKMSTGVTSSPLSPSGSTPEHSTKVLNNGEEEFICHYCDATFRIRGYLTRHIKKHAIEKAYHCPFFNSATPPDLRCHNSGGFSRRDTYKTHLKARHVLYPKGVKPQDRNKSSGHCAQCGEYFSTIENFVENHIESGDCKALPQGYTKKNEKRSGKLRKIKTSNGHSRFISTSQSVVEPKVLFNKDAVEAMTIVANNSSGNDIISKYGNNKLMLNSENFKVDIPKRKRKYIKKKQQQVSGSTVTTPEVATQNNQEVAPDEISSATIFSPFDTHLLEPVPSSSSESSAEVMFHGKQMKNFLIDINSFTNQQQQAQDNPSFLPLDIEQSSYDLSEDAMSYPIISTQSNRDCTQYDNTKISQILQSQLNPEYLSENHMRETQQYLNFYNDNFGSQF
Outline: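 Yeast transcription factors, full-length or as DNA-binding domains, were expressed with a GST tag using PURExpress in vitro transcription/translation. At about 100-200 nM they were applied to universal all-10-mer Agilent arrays, double-stranded by primer extension on fresh or once-stripped slides. Fluorescent anti-GST detected bound protein, and masliner normalised the scans. E-scores for ungapped eight-base words, pooled with reverse complements, came from the Universal PBM Analysis Suite.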

Row | Sequence | PBM E-score
1 | AGCAGACC | -0.0565
2 | CCTCTGTA | -0.0499
3 | GACTAACA | -0.00472
4 | ACCGGTCC | -0.369
5 | ACAAAACG | 0.255
6 | AATAGTGT | 0.104
7 | CGGTCACA | -0.236
8 | GAGGTAGC | -0.299
9 | CACGGCCA | 0.34
10 | CCTATGCC | 0.0677
11 | TGCGGTAA | 0.285
12 | CCAGCAAG | -0.221
13 | GGAGGGGA | -0.22
14 | GCCAACAA | -0.18
15 | CAAGATCC | -0.0198
16 | GAGAACTA | 0.0272
17 | CACCCAAG | -0.185
18 | TCATAGCA | -0.0832
19 | CTTGAATC | 0.0123
20 | CTGGAGGA | -0.101
21 | CGGGGCAG | -0.0721
22 | CCGACGAG | -0.0825
23 | CAGCATCC | -0.252
24 | CCGAGGGC | 0.00695
25 | GATCCTGA | 0.0651

Row | Sequence | PBM E-score
26 | AACCTAGG | -0.124
27 | AAACGACG | 0.153
28 | GCCGGGAA | -0.208
29 | AGCCTTAC | -0.022
30 | CGTGCTGA | 0.0468
31 | TACCCCCA | -0.28
32 | GGTTAAAA | -0.0872
33 | ACACGTAA | 0.00247
34 | CTACTACC | 0.00874
35 | TGCCTTAA | 0.0763
36 | ATATAGGG | -0.0382
37 | GTCGCCCA | -0.0829
38 | CACACTGA | -0.0264
39 | CTCACGCC | 0.154
40 | GTACAGAA | 0.109
41 | GTGATGTA | 0.0415
42 | GGGAGACC | -0.355
43 | AACCCGCC | -0.00739
44 | AAGACAAG | 0.168
45 | GAAAGGGC | 0.165
46 | AATCGATC | 0.0152
47 | GCAAGTAC | -0.0666
48 | CTGAGTCC | -0.216
49 | AGCATGAC | -0.11
50 | AGATGTGG | -0.1

Row | Sequence | PBM E-score
51 | CTTGTCAC | -0.0747
52 | CGTGGGTA | -0.109
53 | CCGAGCGC | 0.17
54 | TAGTCTAA | -0.222
55 | AATTGTTC | 0.227
56 | CCTAAACA | -0.0254
57 | ATATCCAA | 0.05
58 | CGCTAACG | 0.274
59 | GCAAGGCC | 0.151
60 | TTCTCCAA | -0.0322
61 | ATAGTCGG | -0.212
62 | GGCGCGGA | 0.337
63 | AGTGTGAC | -0.121
64 | ACGTCCCC | -0.352
65 | CAGTAGGG | -0.134
66 | ACAGTAGA | 0.122
67 | ATCCTAGA | -0.0917
68 | AGGGTACG | -0.0774
69 | CAGGCTTC | -0.0621
70 | CAGTACAG | -0.0899
71 | GCCCAACA | -0.0273
72 | AATCCCCT | -0.393
73 | AATTAGTC | 0.0464
74 | AGCTGATG | -0.0323
75 | CCGGACTC | -0.133

Row | Sequence | PBM E-score
76 | CAGTGCGA | -0.0864
77 | CCGAAGCC | 0.0514
78 | AATCACAA | -0.0429
79 | AGTCCGAT | -0.182
80 | GTCTCAAC | 0.00452
81 | AAGGGCAT | 0.0351
82 | AGCGGTAC | 0.004
83 | AAAGGATA | 0.206
84 | ATTGAGAG | 0.143
85 | ACTGGTCA | -0.105
86 | GATTATAA | 0.174
87 | GCCGGTCC | -0.0741
88 | GCAGAGAA | -0.0358
89 | CGCGAGCC | 0.1
90 | CCGGGGAA | -0.0354
91 | AATGGAAA | 0.121
92 | CGGCTCAC | 0.213
93 | GTTTACCA | 0.121
94 | ATCGATAG | 0.106
95 | CATCTTAG | 0.0964
96 | GCAGACCA | -0.141
97 | ATCTCGGG | -0.143
98 | GCACTTTA | 0.077
99 | ACGCGACA | 0.162
100 | AAGCAGAG | -0.0857

Row | Sequence | PBM E-score
101 | ACTCCTGC | 0.0407
102 | ACGAGGAA | 0.0732
103 | GCGTGGTA | -0.0304
104 | ACGCGACT | -0.171
105 | ATCACCTC | -0.0852
106 | GTAGGGGA | -0.264
107 | ATGCCAAT | 0.207
108 | AGCGTCCC | -0.218
109 | GAATAAAC | 0.139
110 | AATTTATA | 0.224
111 | CATGAAGG | 0.0782
112 | ACTAGCTC | 0.00118
113 | CCGTCTCA | 0.167
114 | GCGCGTCA | 0.119
115 | ATTGGAGG | -0.0956
116 | CATTCGGG | -0.118
117 | AGCAAGTG | -0.0954
118 | CAATACGG | 0.32
119 | CCGTCGCA | 0.138
120 | AAGGCCTT | -0.102
121 | ATGGTTAA | 0.136
122 | CTTGTTAC | -0.0189
123 | CGACTACC | -0.22
124 | ATGCGACC | 0.0512
125 | GCATCCAA | -0.11

Row | Sequence | PBM E-score
126 | GGGCGTCA | -0.037
127 | GCCGCCAA | -0.0138
128 | GATTTCAC | 0.0443
129 | CCCTCACC | -0.419
130 | CGCAAATA | 0.164
131 | AGTCGAAC | -0.146
132 | GAACATGC | -0.0783
133 | ATCAGCAC | 0.0411
134 | AATTCAAT | 0.168
135 | CAATCGCC | 0.246
136 | AGCGATCG | -0.0207
137 | ACGAAATC | 0.122
138 | AACCGGAA | -0.097
139 | CCGACGCA | -0.198
140 | ACGCCCTG | 0.288
141 | CATGCGCA | -0.0214
142 | GCGCGGCC | 0.4
143 | AATGGGCT | -0.226
144 | TGGGGTAA | 0.05
145 | AGCGCTGC | -0.0136
146 | ATAACATG | -0.00579
147 | CAACACAA | 0.1
148 | ACCCAATA | -0.104
149 | ACGCAGGA | -0.166
150 | ATACATAT | 0.303

Row | Sequence | PBM E-score
151 | AATGTAAG | 0.137
152 | GATAATAC | 0.0667
153 | GCTTTAAA | 0.0475
154 | AAGAGGGG | -0.057
155 | CCGCGTCG | 0.355
156 | CGAATGCA | 0.0903
157 | AACAGGGA | 0.0073
158 | AGGCCAAG | -0.35
159 | CATGTGTA | 0.153
160 | AGGAGCAC | -0.117
161 | ACATCTTG | -0.119
162 | AGATATTC | -0.154
163 | AATAAACG | 0.18
164 | CAGAGTGC | -0.0833
165 | AGCCTCTA | -0.127
166 | CCCACCCC | -0.037
167 | GGCTCGTA | 0.0726
168 | ATTATACG | 0.294
169 | ATGGACCC | -0.193
170 | AACCCTAC | -0.186
171 | GGCATGCA | 0.134
172 | GTTTACAA | 0.109
